Data on 24 compounds can be found in US11618753B2 (priority 2018, dated 2023).

Usually IC50 stands for the concentration at which inhibition is half-maximal.

This assay deals with MLKL phosphorylation, HT29-L23 human colorectal adenocarcinoma cells. Briefly: cells. The note with it: read-out: pMLKL HCS Cell Assay (IC50, uM).
`Nc1ncnn2c(-c3cnc(F)c(C(=O)NCC[C@@H](O)c4ccc(Cl)cc4)c3)cc(C(F)(F)F)c12` [Example 269, 5-[4-amino-5-(trifluoromethyl)pyrrolo[2,1-f][1,2,4]triazin-7-yl]-N-[(3R)-3-(4-chlorophenyl)-3-hydroxypropyl]-2-fluoropyridine-3-carboxamide]: the concentration for half-maximal inhibition (IC50) was 0.028 µM.

In the case of `Nc1ncnn2c(-c3ccc(Cl)c(C(=O)N[C@@H]4CN(C(=O)c5cnccc5Cl)C[C@@H]4F)c3)cc(C(F)(F)F)c12` [Example 959, 5-[4-amino-5-(trifluoromethyl)pyrrolo[2,1-f][1,2,4]triazin-7-yl]-2-chloro-N-[(3R,4S)-1-(4-chloropyridine-3-carbonyl)-4-fluoropyrrolidin-3-yl]benzamide], the IC50 was 0.026 µM.

As to `Cc1nc(C)c(-c2cc(C(F)(F)F)c3c(N)ncnn23)cc1C(=O)N[C@@H]1CN(C(=O)C2(F)CC2)C[C@@H]1F` [Example 1182, 5-[4-amino-5-(trifluoromethyl)pyrrolo[2,1-f][1,2,4]triazin-7-yl]-N-[(3R,4S)-4-fluoro-1-(1-fluorocyclopropane-carbonyl)pyrrolidin-3-yl]-2,6-dimethylpyridine-3-carboxamide], the IC50 amounted to 0.139 µM.

In the case of `Nc1ncnn2c(-c3cc(C(=O)N[C@@H]4CN(C(=O)C5CC(F)(F)C5)C[C@@H]4F)c(F)cc3Cl)cc(C(F)(F)F)c12` [Example 524, 5-[4-amino-5-(trifluoromethyl)pyrolo[2,1-f][1,2,4]triazin-7-yl]-4-chloro-N-[(3R,4S)-1-(3,3-difluorocyclobutanecarbonyl)-4-fluoropyrrolidin-3-yl]-2-fluorobenzamide], the IC50 stood at 0.118 µM.

In the case of `COc1ncc(-c2cc(C(F)(F)F)c3c(N)ncnn23)cc1C(=O)NC1CN(Cc2cccc3ccccc23)CC1F` (racemic) [Example 240, 5-[4-amino-5-(trifluoromethyl)pyrrolo[2,1-f][1,2,4]triazin-7-yl]-N-{4-fluoro-1-[(naphthalen-1-yl)methyl]pyrrolidin-3-yl}-2-methoxypyridine-3-carboxamide], the IC50 stood at 0.271 µM.

With `C#CCOC(=O)N1C[C@H](F)[C@H](NC(=O)c2cc(-c3cc(C(F)(F)F)c4c(N)ncnn34)cnc2OC)C1` [Example 1435, prop-2-yn-1-yl (3R,4S)-3-{5-[4-amino-5-(trifluoromethyl)pyrrolo[2,1-f][1,2,4]triazin-7-yl]-2-methoxypyridine-3-amido}-4-fluoropyrrolidine-1-carboxylate], the IC50 was determined as 0.0076 µM.

Consider `COc1cc(F)c(-c2cc(C(F)(F)F)c3c(N)ncnn23)cc1C(=O)N[C@@H]1CN(C(=O)CC(C)C(F)(F)F)C[C@@H]1F` (stereo partly drawn) [Example 875, 5-[4-amino-5-(trifluoromethyl)pyrrolo[2,1-f][1,2,4]triazin-7-yl]-4-fluoro-N-[(3R,4S)-4-fluoro-1-(4,4,4-trifluoro-3-methylbutanoyl)pyrrolidin-3-yl]-2-methoxybenzamide], for which the IC50 is 0.0032 µM.

On to `COc1ncc(-c2cc(CN3CCC(F)(F)CC3)c3c(N)ncnn23)cc1C(=O)N[C@@H]1CN(C(=O)OC(C)C(F)(F)F)C[C@@H]1F` (stereo partly drawn) [Example 1507, 1,1,1-trifluoropropan-2-yl (3R,4S)-3-(5-{4-amino-5-[(4,4-difluoropiperidin-1-yl)methyl]pyrrolo[2,1-f][1,2,4]triazin-7-yl}-2-methoxypyridine-3-amido)-4-fluoropyrrolidine-1-carboxylate], for which the concentration for half-maximal inhibition (IC50) came out at 0.00037 µM.

Turning to `COc1ncc(-c2cc(C(F)(F)F)c3c(N)ncnn23)cc1C(=O)N[C@@H]1CN(C2CCc3c(F)cccc32)C[C@@H]1F` (mixture of isomers) [Example 1355, 5-[4-amino-5-(trifluoromethyl)-pyrrolo[2,1-f][1,2,4]triazin-7-yl]-N-[(3R,4S)-4-fluoro-1-(4-fluoro-2,3-dihydro-1H-inden-1-yl)pyrrolidin-3-yl]-2-methoxypyridine-3-carbox-amide], the 50% inhibitory concentration (IC50) came out at 0.028 µM.

For `COc1ncc(-c2cc(C(F)(F)F)c3c(N)ncnn23)cc1C(=O)N[C@@H]1CN(C(=O)CC2CCC2)C[C@@H]1F` [Example 1204, 5-[4-amino-5-(trifluoromethyl)pyrrolo[2,1-f][1,2,4]triazin-7-yl]-N-[(3R,4S)-1-(2-cyclobutylacetyl)-4-fluoropyrrolidin-3-yl]-2-methoxypyridine-3-carboxamide], the 50% inhibitory concentration (IC50) is 0.034 µM.

For `COc1ncc(-c2cc(C(F)(F)F)c3c(N)ncnn23)cc1C(=O)N[C@@H]1CN(S(=O)(=O)Cc2ccccc2C(F)(F)F)C[C@@H]1F` [Example 1496, 5-[4-amino-5-(trifluoromethyl)pyrrolo[2,1-f][1,2,4]triazin-7-yl]-N-[(3R,4S)-4-fluoro-1-{[2-(trifluoromethyl)phenyl]methanesulfonyl}pyrrolidin-3-yl]-2-methoxypyridine-3-carboxamide], the 50% inhibitory concentration (IC50) came to 0.085 µM.

For `Cc1ccc(-c2cc(C(F)(F)F)c3c(N)ncnn23)cc1C(=O)N[C@@H]1CN(C(=O)c2ccc(C(F)(F)F)nc2)C[C@@H]1F` [Example 1031, 5-[4-amino-5-(trifluoromethyl)pyrrolo[2,1-f][1,2,4]triazin-7-yl]-N-[(3R,4S)-4-fluoro-1-[6-(trifluoromethyl)pyridine-3-carbonyl]pyrrolidin-3-yl]-2-methylbenzamide], the IC50 was 0.162 µM.

`Cc1ncc(-c2cc(C(F)(F)F)c3c(N)ncnn23)cc1C(=O)N1CCCC(C)(C(O)c2ccc(F)cc2)C1` (stereo not drawn) [Example 1740, (5-(4-amino-5-(trifluoromethyl)pyrrolo[2,1-f][1,2,4]triazin-7-yl)-2-methylpyridin-3-yl)(3-((4-fluorophenyl)(hydroxy)methyl)-3-methylpiperidin-1-yl)methanone]: the 50% inhibitory concentration (IC50) was determined as 0.033 µM.

As to `COc1c(F)cc(-c2cc(C(F)(F)F)c3c(N)ncnn23)cc1C(=O)N[C@@H]1CN(C(=O)C2CCC(F)CC2)C[C@@H]1F` (stereo partly drawn) [Example 695, 5-[4-amino-5-(trifluoromethyl)pyrrolo[2,1-f][1,2,4]triazin-7-yl]-3-fluoro-N-[(3R,4S)-4-fluoro-1-(4-fluorocyclohexanecarbonyl)pyrrolidin-3-yl]-2-methoxybenzamide], the IC50 was 0.086 µM.

Take `CC(O)(CC(=O)N1C[C@H](F)[C@H](NC(=O)c2cc(-c3cc(C(F)(F)F)c4c(N)ncnn34)ccc2OC(F)F)C1)C(F)(F)F` (stereo partly drawn) [Example 1091, 5-[4-amino-5-(trifluoromethyl)pyrrolo[2,1-f][1,2,4]triazin-7-yl]-2-(difluoromethoxy)-N-[(3R,4S)-4-fluoro-1-(4,4,4-trifluoro-3-hydroxy-3-methylbutanoyl)pyrrolidin-3-yl]benzamide]: the IC50 is 0.017 µM.

Regarding `COc1ncc(-c2cc(C(F)(F)F)c3c(N)ncnn23)cc1C(=O)N[C@@H]1CN(C(C)c2csc(C)n2)C[C@@H]1F` (stereo partly drawn) [Example 443, 5-[4-amino-5-(trifluoromethyl)pyrrolo[2,1-f][1,2,4]triazin-7-yl]-N-[(3R,4S)-4-fluoro-1-[1-(2-methyl-1,3-thiazol-4-yl)ethyl]pyrrolidin-3-yl]-2-methoxypyridine-3-carboxamide], the IC50 was 0.021 µM.

On to `Nc1ncnn2c(-c3cccc(C(=O)N[C@@H]4CN(C(=O)C5CCC(F)(F)CC5)C[C@@H]4F)c3)cc(CN3CC(F)(F)C3)c12` [Example 1179, 3-{4-amino-5-[(3,3-difluoroazetidin-1-yl)methyl]pyrrolo[2,1-f][1,2,4]triazin-7-yl}-N-[(3R,4S)-1-(4,4-difluorocyclohexanecarbonyl)-4-fluoropyrrolidin-3-yl]benzamide], for which the half-maximal inhibitory concentration (IC50) was determined as 0.0024 µM.

As to `COc1ncc(-c2c(C#N)cc3c(N)ncnn23)cc1C(=O)N[C@H](C)c1cc(C(F)(F)F)ccc1F` [Example 549, (R)-5-(4-amino-6-cyanopyrrolo[2,1-f][1,2,4]triazin-7-yl)-N-(1-(2-fluoro-5-(trifluoromethyl)phenyl)ethyl)-2-methoxynicotinamide], the IC50 is 0.018 µM.

As to `Cc1ncc(-c2cc(C(F)(F)F)c3c(N)ncnn23)cc1C(=O)Nc1cnn(CCC(C)(O)C(F)(F)F)c1` (stereo not drawn) [Example 1791, 5-(4-amino-5-(trifluoromethyl)pyrrolo[2,1-f][1,2,4]triazin-7-yl)-2-methyl-N-(1-(4,4,4-trifluoro-3-hydroxy-3-methylbutyl)-1H-pyrazol-4-yl)nicotinamide], the IC50 was found to be 0.031 µM.

On to `COc1ncc(-c2cc(CN3CCC(F)(F)CC3)c3c(N)ncnn23)cc1C(=O)N[C@@H]1CN(C(=O)OCC(C)(F)F)C[C@@H]1F` [Example 1518, 2,2-difluoropropyl (3R,4S)-3-(5-{4-amino-5-[(4,4-difluoropiperidin-1-yl)methyl]pyrrolo[2,1-f][1,2,4]triazin-7-yl}-2-methoxypyridine-3-amido)-4-fluoropyrrolidine-1-carboxylate], for which the IC50 was determined as 0.0016 µM.

In the case of `COc1ncc(-c2cc(C(F)(F)F)c3c(N)ncnn23)cc1C(=O)NC1CN(Cc2cncc(Br)c2)CC1F` (racemic) [Example 239, 5-[4-amino-5-(trifluoromethyl)pyrrolo[2,1-f][1,2,4]triazin-7-yl]-N-{1-[(5-bromopyridin-3-yl)methyl]-4-fluoropyrrolidin-3-yl}-2-methoxypyridine-3-carboxamide], the concentration for half-maximal inhibition (IC50) was 0.068 µM.

In the case of `Cc1c(F)cc(-c2cc(C(F)(F)F)c3c(N)ncnn23)cc1C(=O)N[C@@H]1CN(C(=O)C2(O)CCC2)C[C@@H]1F` [Example 671, 5-[4-amino-5-(trifluoromethyl)pyrrolo[2,1-f][1,2,4]triazin-7-yl]-3-fluoro-N-[(3R,4S)-4-fluoro-1-(1-hydroxycyclobutanecarbonyl)pyrrolidin-3-yl]-2-methylbenzamide], the IC50 was 0.0039 µM.

With `Nc1ncnn2c(-c3ccc(CF)c(C(=O)N[C@@H]4CN(C(=O)CC(F)(F)F)C[C@@H]4F)c3)cc(C(F)(F)F)c12` [Example 921, 5-[4-amino-5-(trifluoromethyl)pyrrolo[2,1-f][1,2,4]triazin-7-yl]-N-[(3R,4S)-4-fluoro-1-(3,3,3-trifluoropropanoyl)pyrrolidin-3-yl]-2-(fluoromethyl)benzamide], the half-maximal inhibitory concentration (IC50) was 0.016 µM.

Turning to `COc1ncc(-c2cc(C(F)(F)F)c3c(N)ncnn23)cc1C(=O)N[C@@H]1CN(C2CCc3cccc(Cl)c32)C[C@@H]1F` (mixture of isomers) [Example 1360, 5-[4-amino-5-(trifluoromethyl)-pyrrolo[2,1-f][1,2,4]triazin-7-yl]-N-[(3R,4S)-1-(7-chloro-2,3-dihydro-1H-inden-1-yl)-4-fluoropyrrolidin-3-yl]-2-methoxypyridine-3-carbox-amide], the half-maximal inhibitory concentration (IC50) worked out at 0.105 µM.
